Test results taken from PubChem BioAssay AID1508642 (National Center for Advancing Translational Sciences (NCATS), 2021).
The campaign covered roughly 43,000 compounds. About 200 (0.47%) were called active. Another 12% or so got no clear call; they are omitted. Calls follow the shape of the dose curve; as a rule, active = well fitted cell-killing curve with a large enough effect; inconclusive = small, poorly fitted or top-dose-only effect, or effect the other way; inactive = flat fitted curve, though single readings scatter. Some of the results follow.

assay: Cell viability qHTS assay in S16 Pmp22-F2sN cells; settings: S16 Pmp22-F2sN Schwann cells (luciferase reporters placed in the Pmp22 gene) viability, CellTiter-Glo, 24 h; series mostly up to 57.5 µM; activity change, negative = cytotoxicity: at the top concentration; also: nearly all actives have a fitted effect of over 65% in size
Outline: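 Rat S16 Schwann reporter line, 24 h treatment with library compounds delivered at 23 nL per well. Cell viability by CellTiter-Glo luminescence.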
% is scaled to controls: 0 for no effect and ±100 for the full control effect.

SMILES | activity change, negative = cytotoxicity
CCn1cc(S(=O)(=O)c2ccc(C)cc2C)c(=O)c2cc(F)c(N3CCCCC3)cc21 | inactive: -13.4%
CCOc1ccc(NC(=O)CN2CCSc3ccc(S(=O)(=O)N4CCCC4)cc32)cc1 | inactive: 0.607%
CCN(CC)c1cc2c(cc1F)c(=O)c(S(=O)(=O)c1ccccc1)cn2C | inactive: -23.9%
COC(=O)c1c(NC(=O)/C=C/c2ccc(OC)c(OC)c2)sc2c1CCC2 | inactive: 5.21%
Cc1cc(C)cc(N(CC(=O)NCc2ccccc2Cl)S(=O)(=O)c2c(C)[nH]c(=O)[nH]c2=O)c1 | inactive: 1.18%
CCc1ccccc1NS(=O)(=O)c1cc(Br)cc2c1N(C(=O)C1CC1)CC2 | inactive: 9.37%
CCOC(=O)Cn1c(=O)n(CC2CCCO2)c2nc(-c3c(F)cccc3Cl)nc(C(N)=O)c21 (configuration not stated) | inactive: -1.38%
CC(Nc1oc(-c2ccc(COc3ccc(Cl)cc3)o2)nc1C#N)c1ccccc1 (configuration not stated) | inactive: 4.37%
CCN(CC)CCCNC(=O)CN1C(=O)COc2ccc(S(=O)(=O)N3CCC(C)CC3)cc21 | inactive: 10.5%
CCN(CC)c1ccc(NC(=O)CN2C(=O)c3cccnc3Oc3ccc(Cl)cc32)c(C)c1 | inactive: -7.14%
COCCNC(=O)CSc1nnc2[nH]c(=O)cc(C)n12 | inactive: -5.08%
O=C(NCc1ccccc1)c1ccc2c(c1)nc1n2CCOC1 | inactive: 13.6%
CCC(=O)Nc1cc2nn(-c3ccc(C)cc3)nc2cc1C | inactive: 0.938%
Cc1ccc(NC(=O)[C@@H](c2ccccc2)N2Cc3ccccc3C2=O)cc1F | inactive: 0.297%
Cc1c(C(=O)NCc2ccc(F)cc2)sc2nc(-c3ccc(F)cc3)cn12 | inactive: -21.5%
O=C(CSc1ncc2c(n1)-c1ccc(Cl)cc1N(Cc1ccccc1)S2(=O)=O)Nc1ccccc1C(F)(F)F | inactive: -8.27%
CCOC(=O)Cn1c(=O)n(CC2CCCO2)c2nc(-c3ccc(CC)cc3)nc(C(N)=O)c21 (configuration not stated) | inactive: 0.936%
COc1ccc(CCNC(=O)Cn2c(=O)c3cccn3c3ccccc32)cc1OC | inactive: 12.6%
CCCc1nn2c(=O)cc(COC(=O)c3ccco3)nc2s1 | inactive: 5.17%
Cc1ccccc1CN1C(=O)c2ccccc2S(=O)c2ccc(C(=O)NCc3ccc4c(c3)OCO4)cc21 (configuration not stated) | inactive: -8.8%
COc1cccc(CNC(=O)CCC(=O)N2CC(C)Sc3ccccc32)c1 (configuration not stated) | inactive: 0.501%

SMILES | activity change, negative = cytotoxicity
COc1ccc(CNC(=O)C(=O)Nc2cc(Cl)ccc2OC)cc1 | inactive: 10.5%
COc1ccc(N2CCN(S(=O)(=O)CCNC(=O)c3c(F)cccc3Cl)CC2)cc1 | inactive: -3.09%
CC(=O)Nc1cc(C(=O)Nc2ccc3c(c2)N(C)C(=O)c2ccccc2S3)ccc1C | inactive: 2.88%
CCCN(CCC)C(=O)C1CCCN(c2ncnc3c2nc2n3CCCCC2)C1 (configuration not stated) | inactive: -10.4%
Cc1ccccc1CNC(=O)c1ccc(CN2CC(=O)N3CCCCC3C2=O)cc1 (configuration not stated) | inactive: 1.47%
Cc1nc2c(c(C)nn2C(C)(C)C)c(C)c1CCC(=O)Nc1ccc(Br)cc1Br | inactive: 20.8%
Cc1ccc(NS(=O)(=O)c2c(C)nc3sc(C)cn3c2=O)c(C)c1 | inactive: -22.9%
Cc1cccn2c(=O)c(C(=O)NCCc3ccc(Cl)cc3)cnc12 | inactive: -3.3%
CC(=O)c1ccc(NC(=O)C2CCC(CNS(=O)(=O)c3cccc4nsnc34)CC2)cc1 (configuration not stated) | inactive: 3.64%
CCc1ccccc1N1C(=O)N(Cc2cccc(Cl)c2)c2ccccc2S1(=O)=O | inactive: 1.21%
CCCNS(=O)(=O)c1cc(-c2nnc3c4ccccc4c(C)nn23)ccc1OC | inactive: 3.28%
CC(C)(C)OC(=O)N1CCC(c2c(C(=O)N3CCN(C(=O)c4ccco4)CC3)cnn2-c2ccc(Cl)cc2)CC1 | inactive: 5.81%
Cc1ccc(Cl)cc1NC(=O)c1cccc(NC(=O)N2CCSc3ncccc32)c1 | inactive: -4.84%
CCOc1ccc(NC(=O)C2CCCN(c3nnc(-n4c(C)ccc4C)s3)C2)cc1 (configuration not stated) | inactive: 15.5%
CCc1ccc(NCc2cc3ccc(OC)cc3n(CC(=O)Nc3cccc(Cl)c3C)c2=O)cc1 | inactive: 16.4%
Cc1ccc(C(=O)NCc2nnnn2-c2ccc(C)c(C)c2)cc1 | inactive: -1.88%
Cc1ccc(N2C(=O)c3n[nH]c(C)c3C2c2ccc(C(C)C)cc2)cc1 (configuration not stated) | inactive: 0.759%
COc1cccc(C(=O)Nc2ccccc2-c2nc(-c3ccc(C)cc3)no2)c1 | inactive: 4.53%
CCOC(=O)c1c(S(=O)(=O)N2CCN(c3ccccc3OC)CC2)c(C)n(C)c1C | inactive: -10.8%
CCc1ccccc1NC(=O)CC(C)n1nc(C)cc1C (configuration not stated) | inactive: 1.39%
O=c1c2cc3c(cc2n(Cc2cccc(F)c2)c(=O)n1Cc1nc(-c2ccccc2)no1)OCO3 | inactive: 14.8%

SMILES | activity change, negative = cytotoxicity
CC(=O)c1cccc(NC(=O)c2sc3nc4c(cc3c2N)CCCC4)c1 | inactive: 11.6%
COc1cc(OC)c(NC(=O)NCc2ccc3c(c2)CCN3C(C)=O)cc1Cl | inactive: 18.1%
c1ccc(N2CCN(c3ncnc4[nH]ncc34)CC2)cc1 | inactive: -0.221%
O=C(CC1N=C2c3ccccc3N=C(SCc3cccc(Cl)c3)N2C1=O)NC1CCCCC1 (configuration not stated) | inactive: 3.16%
COc1cc(OC)c(NC(=O)c2nc(-c3ccncc3)no2)cc1Cl | inactive: 1.72%
COc1ccc(NC(=O)CSc2nnc(-c3nnn(-c4ccc(F)cc4)c3C)o2)cc1 | inactive: 7.69%
CCCCCNC(=O)C1CCC(Cn2c(=O)c3sccc3n(CC(=O)N3CCCC3)c2=O)CC1 (configuration not stated) | inactive: -11.6%
Cc1cccc(-c2noc(-c3ccc(NC4CCCC4)c([N+](=O)[O-])c3)n2)c1 | inactive: 10.1%
Cc1ccc(OCC(=O)Nc2cccc(C(=O)OCc3cc(=O)n4cc(C)sc4n3)c2)cc1 | inactive: 0.531%
Cc1ccc(Cl)cc1-n1c(=O)cc(N2CCN(c3ccccc3)CC2)[nH]c1=O | inactive: 2.37%
Cc1cc2n(n1)CCCN2C(=O)Nc1ccccc1F | inactive: 2.15%
Cn1c(=NC(=O)c2ccc(F)cc2)sc2cc(Br)ccc21 | inactive: -3.72%
CCOCN(C(=O)Cn1c(C)nc2ccccc21)c1c(C)cccc1CC | inactive: -2.49%
Cc1ccc(C(=O)Nc2nnc(SCc3cc(=O)c4c(C)ccc(C)c4[nH]3)s2)cc1 | inactive: -10.3%
O=C(C1COc2ccccc2O1)N(Cc1cccnc1)c1nc2c(F)cc(F)cc2s1 (configuration not stated) | inactive: 3.69%
O=C(Nc1ccc2nn(-c3ccc(F)cc3)nc2c1)c1cccc2c(Cl)cccc12 | inactive: -0.804%
COc1cccc(C(=O)N2CCC(c3nc4ccccc4s3)CC2)c1 | inactive: 7.79%
CCOc1ccccc1NC(=O)c1ccc2c(c1)CCCN2S(C)(=O)=O | inactive: 1.28%
COCCNc1cc(N2CCN(C3CCCCC3)CC2)c2noc3c2c1C(=O)c1ccccc1-3 | inactive: -8.39%
COC(=O)c1cccc(Nc2c(-c3cc(Br)ccc3O)nc3nc[nH]n23)c1 | inactive: -18.8%
